Laboratory results taken from patent US9845340B2, “Peptides that specifically bind HGF receptor (cMet) and uses thereof” (Dyax Corp., priority 2003, dated 2017).
pKd: −log10 of the molar value. For at least one compound, name, drawing or mass did not settle the structure.

Molecular target: cMet-Fc fusion protein (Homo sapiens, UniProt P08581)
Assay: Fluorescence anisotropy / polarization direct binding, human cMet
Conditions: fluorescein-labeled peptide 20 nM

Sequence of cMet-Fc fusion protein (P08581 25-307 limits assumed): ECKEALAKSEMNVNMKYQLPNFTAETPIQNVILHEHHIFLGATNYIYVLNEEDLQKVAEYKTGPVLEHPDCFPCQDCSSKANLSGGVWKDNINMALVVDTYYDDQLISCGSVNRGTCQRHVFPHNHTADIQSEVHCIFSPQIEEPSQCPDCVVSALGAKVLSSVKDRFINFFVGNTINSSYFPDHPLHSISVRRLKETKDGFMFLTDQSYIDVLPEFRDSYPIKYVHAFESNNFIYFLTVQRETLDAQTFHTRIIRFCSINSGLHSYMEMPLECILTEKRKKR
Sequence of cMet-Fc fusion protein (P08581 with tags, fused parts or gaps limits assumed): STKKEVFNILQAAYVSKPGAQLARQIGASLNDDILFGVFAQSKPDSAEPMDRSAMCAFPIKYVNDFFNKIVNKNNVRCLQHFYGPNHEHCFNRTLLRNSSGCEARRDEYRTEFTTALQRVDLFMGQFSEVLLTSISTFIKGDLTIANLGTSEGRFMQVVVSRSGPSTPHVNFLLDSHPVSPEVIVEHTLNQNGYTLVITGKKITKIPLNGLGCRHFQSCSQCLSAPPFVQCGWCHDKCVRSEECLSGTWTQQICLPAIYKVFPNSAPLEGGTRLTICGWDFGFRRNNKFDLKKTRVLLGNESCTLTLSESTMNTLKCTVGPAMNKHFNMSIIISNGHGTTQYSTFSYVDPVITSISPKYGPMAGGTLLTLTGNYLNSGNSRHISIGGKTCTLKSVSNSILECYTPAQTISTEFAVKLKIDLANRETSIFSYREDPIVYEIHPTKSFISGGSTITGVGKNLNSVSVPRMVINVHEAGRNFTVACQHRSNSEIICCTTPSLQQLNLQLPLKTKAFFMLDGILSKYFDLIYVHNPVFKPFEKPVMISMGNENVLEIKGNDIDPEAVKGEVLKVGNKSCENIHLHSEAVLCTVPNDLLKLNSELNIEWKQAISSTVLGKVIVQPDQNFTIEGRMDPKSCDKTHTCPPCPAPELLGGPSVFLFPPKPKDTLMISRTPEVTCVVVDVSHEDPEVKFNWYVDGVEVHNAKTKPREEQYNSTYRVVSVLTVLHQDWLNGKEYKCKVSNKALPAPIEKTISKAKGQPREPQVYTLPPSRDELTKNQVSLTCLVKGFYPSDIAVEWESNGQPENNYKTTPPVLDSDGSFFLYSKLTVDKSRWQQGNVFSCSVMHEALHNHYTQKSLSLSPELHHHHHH

CC[C@H](C)[C@H](NC(=O)[C@H](CO)NC(=O)CNC(=O)[C@H](C)NC(C)=O)C(=O)N[C@@H](CCC(N)=O)C(=O)N[C@H]1CSSC[C@@H](C(=O)N[C@@H](C)C(=O)N[C@@H](CCSC)C(=O)N[C@@H](Cc2ccc(O)cc2)C(=O)NCC(=O)N[C@H](C(=O)NCC(=O)NCC(=O)NCC(=O)N[C@@H](CCCCNC(=O)c2ccc3c(c2)C(=O)OC32c3ccc(O)cc3Oc3cc(O)ccc32)C(N)=O)[C@@H](C)O)NC(=O)[C@H](CO)NC(=O)[C@H](Cc2ccccc2)NC(=O)[C@H](Cc2c[nH]c3ccccc23)NC(=O)[C@@H]2CCCN2C(=O)[C@@H]2CCCN2C(=O)CNC(=O)[C@H](CCCCN)NC1=O [SEQ ID NO: 048] and CC(=O)N[C@@H](C)C(=O)NCC(=O)N[C@@H](Cc1c[nH]c2ccccc12)C(=O)N[C@@H](Cc1ccccc1)C(=O)N[C@@H](CCC(N)=O)C(=O)N[C@H]1CSSC[C@@H](C(=O)N[C@@H](CCC(=O)O)C(=O)N[C@@H](CCCNC(=N)N)C(=O)N[C@@H](Cc2c[nH]cn2)C(=O)NCC(=O)N[C@H](C(=O)NCC(=O)NCC(=O)NCC(=O)N[C@@H](CCCCNC(=O)c2ccc3c(c2)C(=O)OC32c3ccc(O)cc3Oc3cc(O)ccc32)C(N)=O)[C@@H](C)O)NC(=O)[C@H](CCC(=O)O)NC(=O)[C@H](Cc2ccccc2)NC(=O)[C@H](CO)NC(=O)[C@@H]2CCCN2C(=O)[C@@H]2CCCN2C(=O)CNC(=O)[C@H](CCCCN)NC1=O [SEQ ID NO: 051] are within 0.2 log units of each other in pKd: 5.46 for the first, 5.49 for the second.

Compared with CC(=O)N[C@@H](C)C(=O)NCC(=O)N[C@@H](CCC(=O)O)C(=O)N[C@@H](Cc1c[nH]c2ccccc12)C(=O)N[C@@H](Cc1c[nH]c2ccccc12)C(=O)N[C@H]1CSSC[C@@H](C(=O)N[C@@H](Cc2ccc(O)cc2)C(=O)N[C@@H](Cc2c[nH]c3ccccc23)C(=O)N[C@H](C(=O)NCC(=O)N[C@H](C(=O)NCC(=O)NCC(=O)NCC(=O)N[C@@H](CCCCNC(=O)c2ccc3c(c2)C(=O)OC32c3ccc(O)cc3Oc3cc(O)ccc32)C(N)=O)[C@@H](C)O)[C@@H](C)O)NC(=O)[C@H](CC(C)C)NC(=O)[C@H](Cc2ccccc2)NC(=O)[C@H](CCC(=O)O)NC(=O)[C@@H]2CCCN2C(=O)[C@@H]2CCCN2C(=O)CNC(=O)[C@H](Cc2c[nH]cn2)NC1=O [SEQ ID NO: 072], CC[C@H](C)[C@H](NC(=O)[C@H](CC(=O)O)NC(=O)CNC(=O)[C@H](C)NC(C)=O)C(=O)N[C@H](C(=O)N[C@H]1CSSC[C@@H](C(=O)N[C@@H](Cc2c[nH]c3ccccc23)C(=O)N[C@@H](CO)C(=O)N[C@@H](Cc2c[nH]c3ccccc23)C(=O)NCC(=O)N[C@H](C(=O)NCC(=O)NCC(=O)NCC(=O)N[C@@H](CCCCNC(=O)c2ccc3c(c2)C(=O)OC32c3ccc(O)cc3Oc3cc(O)ccc32)C(N)=O)[C@@H](C)O)NC(=O)[C@H](CCC(=O)O)NC(=O)[C@H](Cc2ccccc2)NC(=O)[C@H](Cc2ccc(O)cc2)NC(=O)[C@@H]2CCCN2C(=O)[C@H](Cc2c[nH]cn2)NC(=O)CNC(=O)[C@H]([C@@H](C)O)NC1=O)C(C)C [SEQ ID NO: 068] is 0.46 log units lower in pKd: 6.01 for the first, 5.55 for the second.

First: CC[C@H](C)[C@H](NC(=O)[C@H](Cc1c[nH]c2ccccc12)NC(=O)CNC(=O)[C@H](C)NC(C)=O)C(=O)N[C@@H](CO)C(=O)N[C@H]1CSSC[C@@H](C(=O)N[C@@H](Cc2c[nH]c3ccccc23)C(=O)N2CCC[C@H]2C(=O)NCC(=O)NCC(=O)N[C@H](C(=O)NCC(=O)NCC(=O)NCC(=O)N[C@@H](CCCCNC(=O)c2ccc3c(c2)C(=O)OC32c3ccc(O)cc3Oc3cc(O)ccc32)C(N)=O)[C@@H](C)O)NC(=O)[C@H](C)NC(=O)[C@H](Cc2ccccc2)NC(=O)[C@H]([C@@H](C)O)NC(=O)[C@@H]2CCCN2C(=O)[C@@H]2CCCN2C(=O)CNC(=O)[C@H](C)NC1=O [SEQ ID NO: 056]
Second: CC(=O)N[C@@H](C)C(=O)NCC(=O)N[C@@H](Cc1c[nH]cn1)C(=O)N[C@@H](C)C(=O)N[C@@H](Cc1c[nH]c2ccccc12)C(=O)N[C@H]1CSSC[C@@H](C(=O)N[C@@H](Cc2c[nH]c3ccccc23)C(=O)N2CCC[C@H]2C(=O)N2CCC[C@H]2C(=O)NCC(=O)N[C@H](C(=O)NCC(=O)NCC(=O)NCC(=O)N[C@@H](CCCCNC(=O)c2ccc3c(c2)C(=O)OC32c3ccc(O)cc3Oc3cc(O)ccc32)C(N)=O)[C@@H](C)O)NC(=O)[C@H](CCC(=O)O)NC(=O)[C@H](Cc2ccccc2)NC(=O)[C@H](CCCNC(=N)N)NC(=O)[C@@H]2CCCN2C(=O)[C@@H]2CCCN2C(=O)CNC(=O)[C@H](CO)NC1=O [SEQ ID NO: 061]
The pKd of the first is 0.29 log units higher: 5.57 for the first, 5.28 for the second.

First: CC[C@H](C)[C@@H]1NC(=O)[C@H](CCCNC(=N)N)NC(=O)[C@H](Cc2c[nH]c3ccccc23)NC(=O)[C@@H](NC(=O)[C@@H]2CCCN2C(=O)[C@H](Cc2ccccc2)NC(=O)[C@H](Cc2ccccc2)NC(=O)[C@H](CO)NC(=O)CNC(C)=O)CSSC[C@@H](C(=O)N[C@@H](Cc2c[nH]cn2)C(=O)N[C@@H](C)C(=O)N[C@@H](CC(N)=O)C(=O)N[C@@H](C)C(=O)N2CCC[C@H]2C(=O)NCC(=O)NCC(=O)NCC(=O)N[C@@H](CCCCNC(=O)c2ccc3c(c2)C(=O)OC32c3ccc(O)cc3Oc3cc(O)ccc32)C(N)=O)NC(=O)[C@H](Cc2ccc(O)cc2)NC(=O)CNC(=O)[C@H](Cc2ccccc2)NC(=O)[C@H](CCCNC(=N)N)NC(=O)[C@H](CC(=O)O)NC1=O [SEQ ID NO: 370]
Second: CC(=O)NCC(=O)N[C@@H](CC(=O)O)C(=O)N[C@@H](Cc1ccc(O)cc1)C(=O)N[C@@H](CO)C(=O)N[C@@H](CCC(=O)O)C(=O)N[C@H]1CSSC[C@@H](C(=O)N[C@@H](Cc2ccc(O)cc2)C(=O)N[C@@H](CC(=O)O)C(=O)N[C@@H](CCCNC(=N)N)C(=O)N[C@@H](CC(=O)O)C(=O)N2CCC[C@H]2C(=O)NCC(=O)NCC(=O)NCC(=O)N[C@@H](CCCCNC(=O)c2ccc3c(c2)C(=O)OC32c3ccc(O)cc3Oc3cc(O)ccc32)C(N)=O)NC(=O)[C@H](CCCCN)NC(=O)[C@H](C(C)C)NC(=O)[C@H](CCC(=O)O)NC(=O)[C@H](Cc2ccccc2)NC(=O)[C@H](CO)NC(=O)[C@H](CC(=O)O)NC(=O)[C@@H]2CCCN2C(=O)[C@H](CCC(=O)O)NC(=O)[C@H](Cc2ccccc2)NC(=O)[C@H](Cc2ccccc2)NC1=O [SEQ ID NO: 399]
The pKd of the first is 0.72 log units higher: 6.66 for the first, 5.94 for the second.

First: CC[C@H](C)[C@H](NC(=O)[C@H](Cc1c[nH]cn1)NC(=O)[C@H](CC(C)C)NC(=O)[C@@H](NC(=O)[C@H](CCSC)NC(=O)[C@H](CCSC)NC(=O)[C@H](CCC(N)=O)NC(=O)CNC(=O)[C@H](Cc1ccc(O)cc1)NC(=O)[C@H](CCC(N)=O)NC(=O)[C@H](Cc1c[nH]cn1)NC(=O)[C@H](CCC(N)=O)NC(=O)[C@H](C)NC(C)=O)C(C)C)C(=O)N[C@@H](CCC(N)=O)C(=O)N[C@@H](Cc1ccc(O)cc1)C(=O)N[C@@H](CC(=O)O)C(=O)N[C@@H](CCSC)C(=O)NCC(=O)N[C@@H](CCC(=O)O)C(=O)N[C@@H](Cc1ccccc1)C(=O)N[C@H](C(=O)N1CCC[C@H]1C(=O)NCC(=O)NCC(=O)NCC(=O)N[C@@H](CCCCNC(=O)c1ccc2c(c1)C(=O)OC21c2ccc(O)cc2Oc2cc(O)ccc21)C(N)=O)[C@@H](C)CC [SEQ ID NO: 462]
Second: CC[C@H](C)[C@H](NC(=O)[C@H](Cc1ccccc1)NC(=O)[C@H](CCC(N)=O)NC(=O)[C@H](Cc1ccccc1)NC(=O)[C@@H](NC(=O)[C@H](Cc1c[nH]c2ccccc12)NC(=O)[C@@H](NC(=O)[C@H](CC(=O)O)NC(=O)[C@H](Cc1ccc(O)cc1)NC(=O)[C@H](CCC(N)=O)NC(=O)[C@H](C)NC(C)=O)[C@@H](C)O)C(C)C)C(=O)N[C@@H](Cc1c[nH]cn1)C(=O)N[C@@H](CCC(=O)O)C(=O)N[C@H](C(=O)N1CCC[C@H]1C(=O)NCC(=O)N[C@@H](CCC(=O)O)C(=O)N[C@@H](CC(C)C)C(=O)N[C@H](C(=O)N[C@@H](C)C(=O)N[C@@H](CCSC)C(=O)N[C@@H](CCC(N)=O)C(=O)NCC(=O)NCC(=O)NCC(=O)N[C@@H](CCCCNC(=O)c1ccc2c(c1)C(=O)OC21c2ccc(O)cc2Oc2cc(O)ccc21)C(N)=O)C(C)C)C(C)C [SEQ ID NO: 454]
The pKd of the first is lower: less than 5.70 for the first, 6.03 for the second. The second binds more tightly here.

CC[C@H](C)[C@H](NC(=O)[C@H](C)NC(=O)[C@H](CCC(=O)O)NC(=O)[C@H](C)NC(=O)[C@@H](NC(=O)CNC(=O)[C@@H](NC(=O)[C@H](CCC(N)=O)NC(=O)[C@H](C)NC(C)=O)C(C)C)[C@@H](C)O)C(=O)N[C@@H](CCSC)C(=O)N[C@@H](Cc1ccccc1)C(=O)N[C@@H](CO)C(=O)N[C@@H](CC(=O)O)C(=O)N[C@H](C(=O)N[C@@H](CCC(=O)O)C(=O)N[C@@H](CC(=O)O)C(=O)N[C@H](C(=O)NCC(=O)N[C@H](C(=O)N[C@@H](Cc1c[nH]cn1)C(=O)N[C@@H](CCCCN)C(=O)N[C@@H](Cc1ccccc1)C(=O)NCC(=O)NCC(=O)NCC(=O)N[C@@H](CCCCNC(=O)c1ccc2c(c1)C(=O)OC21c2ccc(O)cc2Oc2cc(O)ccc21)C(N)=O)C(C)C)[C@@H](C)O)C(C)C [SEQ ID NO: 459] and CSCC[C@H](NC(=O)CNC(=O)[C@@H]1CCCN1C(=O)[C@H](CO)NC(=O)[C@H](CO)NC(=O)[C@H](Cc1c[nH]c2ccccc12)NC(=O)[C@H](CCCNC(=N)N)NC(=O)[C@H](CCC(N)=O)NC(=O)[C@H](C)NC(C)=O)C(=O)N[C@@H](CO)C(=O)N[C@@H](CCC(N)=O)C(=O)N[C@@H](CO)C(=O)N[C@@H](Cc1ccccc1)C(=O)N[C@H](C(=O)N[C@@H](CC(C)C)C(=O)N[C@@H](CCC(=O)O)C(=O)N[C@@H](Cc1c[nH]c2ccccc12)C(=O)N[C@@H](CCCCN)C(=O)N[C@@H](Cc1c[nH]c2ccccc12)C(=O)N[C@@H](CC(N)=O)C(=O)N[C@@H](CC(=O)O)C(=O)N[C@@H](CC(N)=O)C(=O)NCC(=O)NCC(=O)NCC(=O)N[C@@H](CCCCNC(=O)c1ccc2c(c1)C(=O)OC21c2ccc(O)cc2Oc2cc(O)ccc21)C(N)=O)C(C)C [SEQ ID NO: 453] cannot be ordered by pKd: less than 5.70 for the first, less than 5.70 for the second.

CC(=O)N[C@@H](C)C(=O)N[C@@H](CCC(N)=O)C(=O)N[C@@H](CC(=O)O)C(=O)N[C@@H](CC(C)C)C(=O)N[C@@H](CCCCN)C(=O)N1CCC[C@H]1C(=O)N[C@@H](Cc1c[nH]c2ccccc12)C(=O)N[C@H](C(=O)N[C@@H](C)C(=O)NCC(=O)N[C@@H](Cc1c[nH]c2ccccc12)C(=O)N[C@@H](CCC(=O)O)C(=O)N1CCC[C@H]1C(=O)N1CCC[C@H]1C(=O)N[C@@H](Cc1c[nH]c2ccccc12)C(=O)N[C@@H](CC(C)C)C(=O)N[C@@H](Cc1c[nH]c2ccccc12)C(=O)N[C@H](C(=O)N[C@@H](CC(=O)O)C(=O)N[C@@H](CCCNC(=N)N)C(=O)NCC(=O)N1CCC[C@H]1C(=O)NCC(=O)NCC(=O)NCC(=O)N[C@@H](CCCCNC(=O)c1ccc2c(c1)C(=O)OC21c2ccc(O)cc2Oc2cc(O)ccc21)C(N)=O)[C@@H](C)O)[C@@H](C)O [SEQ ID NO: 461] gave a pKd of less than 5.70.
